Assay results: PubChem BioAssay AID686978 (National Center for Advancing Translational Sciences (NCATS), 2013)
The campaign covered roughly 420,000 compounds. About 64,000 (15%) were called active. Inconclusive means that the source gave no clear call. Such entries were picked first, then a sample of the others. Calls follow the shape of the dose curve; as a rule, active = well fitted inhibition curve with a large enough effect; inconclusive = small, poorly fitted or top-dose-only effect; inactive = flat fitted curve, though single readings scatter. No potency is given beside an inconclusive call; the fits are too rough.

experiment: qHTS for Inhibitors of human tyrosyl-DNA phosphodiesterase 1 (TDP1): qHTS in cells in absence of CPT; conditions: DT40 Tdp1-/- hTDP1 cells, no CPT, ATP luminescence, 48 h; activity change, negative = growth inhibition: at 46.2 µM (top of the series) unless noted; also: nearly all actives have a fitted effect of over 55% in size
Method in brief: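 Chicken DT40 Tdp1-/- cells complemented with human TDP1, screened without camptothecin (DMSO vehicle only), 400 cells/well. Compounds pin-transferred, cells incubated at 37 °C for at least 48 hr. Growth read as ATP-dependent luminescence (CellTiter-Glo, 30 min at RT).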
% is scaled to controls: 0 for no effect and ±100 for the full control effect; potency is read from the fitted curve at half-maximal effect; tags tell the direction and shape of the fitted curve.

SMILES	Potency	activity change, negative = growth inhibition
O=C(NCC(c1cccnc1)N1CCN(c2ccc(F)cc2)CC1)OCc1ccccc1 (stereo not given)	active: 14.6 µM	–
CCCC(=O)C1=C(O)C(c2cccc(Oc3ccccc3)c2)CCC1=O (stereo not given)	inconclusive [inhibitor, single point]	–
Cc1ccc(C(C(=O)NC2CCCC2)N(CCCO)C(=O)Cn2nnc(-c3ccc(C)o3)n2)cc1 (stereo not given)	inactive	–
COc1c(C)cc(C(=O)C2CCCN(C(=O)c3cccc(-n4cccn4)c3)C2)cc1C (stereo not given)	inconclusive [inhibitor, single point]	–
Cc1oc(-c2cccs2)nc1CNC[C@H]1O[C@@H](n2cnc(C(N)=O)n2)[C@H](O)[C@@H]1O	inactive	–
Nc1nc(CSc2ccccc2)nc(N2CCCCC2)n1	inactive	–
COc1ccc(C(C)C)cc1S(=O)(=O)Nc1cccnc1	inactive	–
CC(C)N1CCCC(CNC(=O)CCc2nnc(CCCCc3ccccc3)o2)C1 (stereo not given)	inconclusive [inhibitor, full curve, poor fit]	–
CCOC(=O)CNC(=O)CSc1nc2nc(C)c(Br)cc2[nH]1	inactive	–
Cc1nn(-c2ccc(F)cc2)c(-n2cccc2)c1C(=O)N1CCN(C(=O)c2ccco2)CC1	inactive	–
CCn1c(SCC(=O)N/N=C/c2ccccc2OCC(=O)O)nnc1-c1ccc(C(C)(C)C)cc1	inconclusive [inhibitor, single point]	–
CN1CCN(c2ccccc2NC(=O)COc2ccc(Br)cc2)CC1	inconclusive [inhibitor, single point]	–
Cc1[nH]c2ccccc2c1C(=O)C(C)OC(=O)c1ccc(Cl)nc1 (stereo not given)	inconclusive [inhibitor, single point]	–
Cc1ccc(S(=O)(=O)Nc2ccc(C(OC(=O)c3ccccc3[N+](=O)[O-])(C(F)(F)F)C(F)(F)F)cc2)cc1	inconclusive [inhibitor, single point]	–
COc1ccc(C2CCCCCN2C(=O)C2CCN(S(=O)(=O)c3cccc(C(C)=O)c3)CC2)cc1 (stereo not given)	inconclusive [inhibitor, single point]	–
CCc1sc(C(=O)NC2CCN(C)CC2)cc1Br	inconclusive [inhibitor, partial curve, poor fit]	–
COc1ccc(-c2n[nH]c(C(F)(F)F)c2-c2cc3ccccc3o2)c(O)c1	active: 14.6 µM	–
COc1ccc(C(=O)NNC(=S)NC(=O)/C=C/c2cccs2)cc1	inconclusive [inhibitor, single point]	–
Cc1cc(=O)oc2cc(NS(=O)(=O)c3ccccc3)ccc12	inconclusive [inhibitor, partial curve]	–
CCCCOC(=O)c1ccc(NC(=O)CSc2nc3c(c(=O)[nH]2)CCCC3)cc1	active: 13 µM	–
Cc1ccc2c(c1)sc1nc(=O)n(-c3ccccc3)c(=O)n12	inconclusive [inhibitor, partial curve]	–
Cc1cc2c(cc1C)N(C(=O)CN1C(=O)c3ccccc3C1=O)C(C)(C)c1ssc(=S)c1-2	active: 25.9 µM	–
CCOc1ccc2ccccc2c1C1NC(=S)N(C)C(C)=C1C(=O)OC (stereo not given)	inconclusive [inhibitor, single point]	–

SMILES	Potency	activity change, negative = growth inhibition
COC(=O)c1ccc(NC(=O)c2nc(S(=O)(=O)Cc3ccccc3F)ncc2Cl)cc1	active: 0.891 µM	–
CCc1nnc(NC(=O)CCC(=O)O)s1	inactive	–
O=C(CCSc1ccccc1)NCCSCc1ccco1	inconclusive [inhibitor, single point]	–
CC(C)CCN1C(=O)CSCC1(C)C(=O)NC(C)C (stereo not given)	inactive	–
COc1cc(CN2CCN(Cc3c[nH]c4ccccc34)CC2CCO)cc(OC)c1 (stereo not given)	inconclusive [inhibitor, partial curve, poor fit]	–
Cc1ccc(CN2CCN(CCCn3cccn3)CC2CCO)cc1 (stereo not given)	–	inconclusive: -7.35% [inhibitor]
CCOC(=O)C1CN(S(=O)(=O)c2ccc(C)cc2)c2cc(S(=O)(=O)CC)ccc2O1 (stereo not given)	inactive	–
Cc1c(-c2ccc(Br)cc2)nc2ccccn12	–	inconclusive: -35.3% [inhibitor]
CCC1(c2ccccc2)NC(=O)N(CC(=O)N2CC(=O)Nc3ccccc32)C1=O (stereo not given)	inconclusive [inhibitor, single point]	–
CN(CC(=O)Nc1cccc(F)c1)CC(=O)Nc1ccccc1Oc1ccccc1	inconclusive [inhibitor, partial curve, poor fit]	–
CC(C)(C)c1ccc(C(=O)Nc2ccc(C=C(C#N)C#N)cc2)cc1	active: 11.6 µM	–
Cc1ccc(NC(=O)CN2C(=O)S/C(=C/c3ccncc3)C2=O)cc1	inconclusive [inhibitor, partial curve]	–
Cc1cc(NC(=O)C(C)SCC(=O)OCc2c(Cl)cccc2Cl)no1 (stereo not given)	inactive	–
O=C(CN1CCN(Cc2ccc3c(c2)OCO3)CC1)Nc1ccc2c(c1)OCO2	inactive	–
CN(C(=O)c1cccc(NC(=O)Cc2ccc(NC(=O)C3CCN(C(=O)C4CCCCC4)CC3)cc2)c1)C1CCCC1	inconclusive [inhibitor, single point]	–
O=C(COc1nsnc1N1CCOCC1)N1CCOCC1	inconclusive [inhibitor, partial curve]	–
Cc1ccc(NC(=O)CSc2ccc(Br)cc2)cc1S(=O)(=O)N1CCOCC1	active: 25.9 µM	–
NS(=O)(=O)c1ccc(NCc2cnc3ccccc3c2)cc1	inconclusive [inhibitor, single point]	–
Cc1csc(OCc2ccc(C#N)cc2)n1	inactive	–
COc1cc(C(C)=O)ccc1OCc1nnc(-c2ccccc2Br)o1	inconclusive [inhibitor, single point]	–
Cc1ccccc1CN1C(=O)c2ccccc2Sc2ccc(C(=O)NC(C)c3ccccc3)cc21 (stereo not given)	inconclusive [inhibitor, partial curve]	–
COc1ccc(OC)c(NS(=O)(=O)c2ccc(-c3coc(C)n3)cc2)c1	inconclusive [inhibitor, single point]	–
